Results published in PubChem BioAssay AID485294 (National Center for Advancing Translational Sciences (NCATS), 2010).
Among all 370,000 compounds or so, about 150 (0.041%) were called active. This list was built around the results that the source calls inconclusive (neither active nor inactive); the mix of calls is not that of the screen. Calls come from the whole dose curve; as a rule, active = well fitted inhibition curve with a large enough effect; inconclusive = small, poorly fitted or top-dose-only effect; inactive = flat fitted curve, though single readings scatter. Potencies of inconclusive entries are left out as doubtful fits.
Note: nearly all actives have a fitted effect of over 25% in size.
Potency is the fitted concentration of half-maximal effect; tags give direction and shape of the fitted curve.
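Throughout, for activity change, negative = inhibition: 0% = no-compound wells and -100% = no-enzyme wells.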

What follows are compounds tested against Beta-lactamase (Escherichia coli (strain K12)) (UniProt P00811) (assay: qHTS Inhibitors of AmpC Beta-Lactamase (assay with detergent)). Details: AmpC hydrolysis of nitrocefin, absorbance 480 nm, 0.01% Triton; activity change, negative = inhibition: at 114 µM (top of the series).
Sequence of UniProt P00811 (P00811 whole entry, looked up): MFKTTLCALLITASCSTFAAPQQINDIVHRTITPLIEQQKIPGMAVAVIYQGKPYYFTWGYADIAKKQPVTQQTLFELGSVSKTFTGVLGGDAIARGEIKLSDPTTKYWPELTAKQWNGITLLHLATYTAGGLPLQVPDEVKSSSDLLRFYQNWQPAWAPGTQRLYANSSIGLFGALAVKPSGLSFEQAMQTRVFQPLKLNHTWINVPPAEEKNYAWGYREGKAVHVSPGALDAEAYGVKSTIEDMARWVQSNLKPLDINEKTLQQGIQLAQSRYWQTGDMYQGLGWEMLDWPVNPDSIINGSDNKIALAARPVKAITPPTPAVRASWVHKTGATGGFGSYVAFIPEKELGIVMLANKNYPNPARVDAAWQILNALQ
Outline: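 AmpC (5.3 nM in the dispensed reagent) in 20 mM phosphate pH 7.0 with 0.01% (detergent screen) or 0.0001% Triton X-100 was preincubated with compounds for 15 min at room temperature. Nitrocefin was then added from an 800 uM solution, and hydrolysis was followed at 480 nm.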
In the case of `COc1cc(OC)c(C2CC(=O)N3CN(C)CSC3=C2C#N)cc1OC` (centres undefined), the Potency is reported as inconclusive [inhibitor, full curve, poor fit].
For `O=C(Nc1ccc(F)cc1)c1csc(Cc2ccccc2)n1`, the “activity change, negative = inhibition” value was inactive: 2.31%.
In the case of `C(=N\NCc1ccccc1)/c1ccc2ncccc2c1`, the “activity change, negative = inhibition” value is reported as inactive: 3.57%.
For `Cn1cc(S(=O)(=O)N2CCOCC2)cc1C(=O)NCc1ccccc1Cl`, the Potency was inconclusive [inhibitor, partial curve].
For `CCc1nnc(NC(=O)c2ccc(OCc3c(C)noc3C)c(OC)c2)s1`, the Potency was inconclusive [inhibitor, full curve].
With `O=C1CC(NS(=O)(=O)c2cccnc2)CN1c1ccc(Cl)cc1` (centres undefined) the Potency was inconclusive [inhibitor, full curve, poor fit].
For `N/C(=N\OC(=O)CCCOc1ccccc1)c1ccc(Br)cc1`, the Potency was inconclusive [inhibitor, partial curve, poor fit].
With `COc1ccc(C(=O)N2CCCC2)cc1S(=O)(=O)N1CCC(C)CC1` the Potency was inconclusive [inhibitor, full curve, poor fit].
With `CCc1c(C)sc(NC(=O)OC)c1C(N)=O` the “activity change, negative = inhibition” value was inactive: -5.61%.
`COc1cc(/C=C2\C(=O)NC(=O)N(CCc3ccc(F)cc3)C2=O)ccc1O` was tested, and the Potency was inconclusive [inhibitor, partial curve, poor fit].
For `CCn1c(CC(=O)Nc2ccccc2F)nnc1SCC(=O)NC1CCCC1`, the Potency was inconclusive [inhibitor, full curve, poor fit].
With `O=C(O)c1ccc2c(c1)C(=O)N(CCc1ccc(O)cc1)C2=O` the Potency was inconclusive [inhibitor, full curve, poor fit].
With `CCN(CC)CCCNC1CCS(=O)(=O)C1` (centres undefined) the Potency was inconclusive [inhibitor, single point].
For `Nc1nc(COc2ccccc2)cs1`, the Potency was inconclusive [inhibitor, full curve, poor fit].
With `Cc1ccc(S(=O)(=O)N2CCCCC2)cc1C(=O)N(C)CCOc1ccccc1` the Potency was inconclusive [inhibitor, partial curve].
In the case of `O=C(OCn1nnc2ccccc2c1=O)c1ccco1`, the Potency is reported as inconclusive [inhibitor, partial curve].
In the case of `CCOC(=O)c1cc(NC(=O)NCc2ccco2)c(C)nc1C`, the Potency is reported as inconclusive [inhibitor, partial curve, poor fit].
For `COc1ccc(NC(=O)C(NC(=O)C2CCC(C)CC2)C(C)C)cc1` (centres undefined), the “activity change, negative = inhibition” value was inactive: -2%.
`CC(C)CCn1cnc2c1c(=O)[nH]c(=O)n2Cc1ccccc1` was tested, and the Potency was inconclusive [inhibitor, partial curve].
